Test results: PubChem BioAssay AID1745853 (National Center for Advancing Translational Sciences (NCATS), 2022)
Values joined by “and” are separate entries in the source; they are usually repeats but may differ in a detail not shown here. Equal values may be shown once. Some of the results follow. Further columns of the screen follow, without active or inactive calls.

Tests used:
Test in all cases: Primary Screen for Target Class Profiling of Small Molecule Inhibitors of Methyltransferases
[1] = biological target: Glycine N-methyltransferase (Homo sapiens) (UniProt Q14749); details: purified enzyme, MTase-Glo SAH luminescence; measured here: GNMT inhibition; at 40 µM; stronger effect = lower value
Method in brief: (§1)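 Each enzyme was reacted with SAM and its substrate, with compounds tested once at 40 uM; SAH formed was read by MTase-Glo luminescence.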

[2] = biological target: Guanidinoacetate N-methyltransferase (Homo sapiens) (UniProt Q14353); details: purified enzyme, MTase-Glo SAH luminescence; measured here: GAMT inhibition; at 40 µM; stronger effect = lower value
Method in brief: as §1

[3] = biological target: Histamine N-methyltransferase (Homo sapiens) (UniProt P50135); details: purified enzyme, MTase-Glo SAH luminescence; measured here: HNMT inhibition; at 40 µM; stronger effect = lower value
Method in brief: as §1

[4] = biological target: Nicotinamide N-methyltransferase (Homo sapiens) (UniProt P40261); details: purified enzyme, MTase-Glo SAH luminescence; measured here: NNMT inhibition; at 40 µM; stronger effect = lower value
Method in brief: as §1

[5] = biological target: Phenylethanolamine N-methyltransferase (Homo sapiens) (UniProt P11086); details: purified enzyme, MTase-Glo SAH luminescence; measured here: PNMT inhibition; at 40 µM; stronger effect = lower value
Method in brief: as §1
On the % scale 0 is the no-effect control and ±100 the full control effect.

SMILES | activity change, negative = inhibition [1] [%] | activity change, negative = inhibition [2] [%] | activity change, negative = inhibition [3] [%] | activity change, negative = inhibition [4] | activity change, negative = inhibition [5]
C=C1C[C@]23C[C@H]1CC[C@H]2[C@]1(C)CCC[C@@](C)(C(=O)O)[C@H]1[C@@H]3C(=O)O | 0.303 | 3.6 | 6.9 | -7.76% | -3.46%
Cc1ccc(CNS(=O)(=O)c2cc3[nH]c(=O)[nH]c3cc2C)cc1 | 5.67 | 1.22 | 0.846 | -2.27% | 2.24%
CC1=C2C(=O)C=C(CO)C2[C@H]2OC(=O)[C@H](C)[C@@H]2[C@@H](OC(=O)Cc2ccc(O)cc2)C1 (stereo partly specified) | -4.62 | -5.66 | 2.96 | -16.8% | 0.259%
COc1ccc(NC(=O)c2ncn3c2C(=O)N(C2CC2)C(C)(C(=O)NC2CCCC2)C3)c(OC)c1 (stereo unspecified) | -4.45 | 4.59 | -2.6 | -5.97% | -3.12%
CC1(C)CC[C@]2(C(=O)O)CC[C@]3(C)C(=CCC4[C@@]5(C)C(=O)C[C@H](O)[C@@](C)(CO)C5CC[C@]43C)[C@@H]2C1 (stereo partly specified) | -0.069 | -1.49 | -0.558 | -14.7% | 1.99%
CN1C[C@H](O)C[C@H]1c1nnc2n1CCN(C(=O)c1cccnc1)CC2 | -2.11 | 0.992 | 1.92 | 2.52% | 13.3%
CCc1cc(=O)n(CC(=O)N2CCN(c3ccccc3OC)CC2)c(-c2ccccc2)n1 | -3.77 | 1.51 | -0.445 | -3.83% | -1.6%
FC(F)(F)c1nnc2c(Sc3ccccc3)nc3ccc(Cl)cc3n12 | 6.66 | 1.43 | 8.61 | -12.6% | -5.96%
COc1cc(S(=O)(=O)N2CCC(n3c(=O)[nH]c4ccccc43)CC2)ccc1-n1cnnn1 | -8.73 | 1.9 | -11.1 | 3.58% | -11.1%
Cn1c(Cn2ccnc2)nnc1C1CCCN(CCOCc2ccccc2)C1 (stereo unspecified) | -5.65 | -9.91 | -4.33 | -10.9% | -1.96%
COc1ccccc1CNC(=O)C1(C)Cn2nc(-c3ccccc3)cc2C(=O)N1Cc1ccc(C)o1 (stereo unspecified) | 2.25 | 9.35 | 5.87 | -3.96% | 0.841%
COc1ccccc1-c1cc(Nc2cccc(CS(N)(=O)=O)c2)ncn1 | 1.09 | -1.99 | -19.8 | -29.7% | -6.69%
CC1(COc2ccc3c(c2)ncn3-c2ccc3cccc(N4CCC(N)CC4)c3n2)COC1 | -38.5 | -45.2 | -59.4 | -49.8% | -71%
Cc1ccc(NC(=O)Cn2nc3n(C)c(=O)c4ccc(C(=O)NC5CCCCC5)cc4n3c2=O)c(C)c1 | 5.9 | 0 | 10.6 | 2.84% | 5.86%
Cc1ccc(C)c(Cn2nc3n(CCc4ccccc4)c(=O)c4ccccc4n3c2=O)c1 | 2.27 | 2.26 | 3.41 | 7.32% | 0.391%
Cc1ccccc1NC(=O)Cn1nc2n(CC(C)C)c(=O)c3ccc(C(=O)NCC(C)C)cc3n2c1=O | 4.28 | 0 | 3.65 | 1.85% | 3.64%
COc1cc(/C=C/c2cn(-c3ccc(C(=O)O)cc3)nc2/C=C/c2ccc(O)c(OC)c2)ccc1O | -79.3 | -3.26 | -15.2 | -6.64% and -26.4% | -2.15% and -5.18%
COc1ccc(CC(=O)N2CC[C@@H](CC(=O)O)[C@@H](CCN(C)c3ccccc3)C2)cc1 | -20.7 | -7.32 | -5.06 | -10% | -15.9%
CCOCCCNC(=O)c1ccc2c(=O)nc3c(-c4ccccc4)n[nH]n3c2c1 | -8.65 | -3 | -3.81 | -0.641% | -4.95%
CNC(=O)c1cc(C2CC2)nc2c1c(C1CCCN1C(=O)c1ccc(C(F)(F)F)cc1)nn2C (stereo unspecified) | -1.49 | -3.03 | 1.32 | -0.415% | -1.18%

SMILES | activity change, negative = inhibition [1] [%] | activity change, negative = inhibition [2] [%] | activity change, negative = inhibition [3] [%] | activity change, negative = inhibition [4] | activity change, negative = inhibition [5]
COc1ccc(C(=O)NC[C@H]2O[C@@H](CC(=O)Nc3ccccc3)[C@H](O)[C@@H]2O)cc1 | 3.13 | -1.49 | 0.451 | -1.81% | -24.2%
CCN1C(=O)c2c(C(=O)NCCCc3ccccc3)ncn2CC1(C)C(=O)NC1CCCC1 (stereo unspecified) | -6.66 | -4.44 | 7.49 | -6.74% | 3.62%
O=C(CCc1nnc2n(Cc3ccc(Cl)cc3)c(=O)c3ccccc3n12)NC1CC1 | -6.58 | 3.86 | 2.39 | 4.87% | -4.17%
COc1cccc(CN2C(=O)c3cc4ccccc4n3CC2(C)C(=O)NCC2CCCO2)c1 (stereo unspecified) | 4.83 | 5.58 | 10.1 | 6.75% | 0.681%
O=C(NC1CC1)c1cc2n(n1)CCCN(C(=O)c1ccccc1-c1ccccc1)C2 | -2.44 | -2.67 | -3.85 | -8.42% | -5.62%
Cc1ccc(S(=O)(=O)c2nnn3c2nc(N2CCC(C(N)=O)CC2)c2cc(Cl)ccc23)cc1C | -26.1 | -1.88 | -16.6 | -11.9% | -14.7%
O=C1CN(Cc2ccc(F)cc2Cl)S(=O)(=O)c2ccccc2N1Cc1ccc(Cl)cc1 | 2.25 | 0 | -0.113 | -5.2% | -2.89%
CC1(C(=O)NC2CCCCCCC2)Cn2c(cc3occc32)C(=O)N1Cc1cccs1 (stereo unspecified) | -2.59 | 0 | 1.21 | -22.7% | 0.032%
COc1ccc(C(=O)N[C@@H]2CCC[C@@H]2C(=O)NCc2ccc(C)o2)cn1 | -8.1 | -7.96 | -2.63 | -12.5% | -9.28%
COc1cccc(N2CCN(c3ccc4nnc(CCC(=O)N5CCN(c6ccc(F)cc6)CC5)n4n3)CC2)c1 | -6.19 | 1.25 | -12.5 | -5.83% | 5.39%
COc1ccc(S(=O)(=O)Nc2nc(-c3cccc([N+](=O)[O-])c3)cs2)cc1OC | -4.12 | -0.958 | 3.12 | -15.8% | -0.566%
CN(Cc1ncc[nH]1)C(=O)C1CCC(=O)N(CCc2ccccn2)C1 (stereo unspecified) | -2.29 | -0.158 | -12.8 | -1.99% | -7.74%
Cc1cc(-c2nc3cc(F)ccc3s2)ccc1NC(=O)[C@@H](N)CCCCN | -15.4 | 2.77 | -5.55 | -13.9% | -5.66%
C/C1=C\CC(C)(C)/C=C/C/C(C(=O)O)=C/CC1 | -3.25 | -8.02 | 3.9 | -24.6% | -13%
CC1CCCN(c2ncnc3c2CN(c2cccnc2)C(=O)CN3C)C1 (stereo unspecified) | -4.6 | -5.64 | -1.57 | -11.8% | -5.36%
CCCC1c2cccn2CCN1C(=O)Nc1cc(Cl)ccc1OC (stereo unspecified) | 1.99 | 0 | -27.1 | 5.07% | 8.65%
CNC(=O)c1cccc(S(=O)(=O)NC2CCCN(C3CCCCCC3)C2)c1 (stereo unspecified) | -1.72 | -6.08 | -4.13 | -3.32% | -2.08%
CCc1cc(C(=O)N2CCOCC2CC(=O)N2CCSCC2)cs1 (stereo unspecified) | -0.765 | 2.08 | 3.56 | -1.6% | 3.24%
COCC(=O)N1CCC(Oc2ccccc2C(=O)N2CCN(c3ccccn3)CC2)CC1 | -1.48 | -2.18 | -2.73 | -5.08% | -3.27%
O=C(Cn1ccc2cc(S(=O)(=O)N3CCCCC3)ccc21)NCCCN1CCCC1 | 0.567 | 0 | -26.4 | 2.61% | -4.24%

SMILES | activity change, negative = inhibition [1] [%] | activity change, negative = inhibition [2] [%] | activity change, negative = inhibition [3] [%] | activity change, negative = inhibition [4] | activity change, negative = inhibition [5]
O=C1Nc2ccccc2C(=O)N2CC[C@H](NS(=O)(=O)c3cccs3)[C@@H]12 | -4.67 | -1.92 | -3.15 | -6.64% | -4.09%
C=CCOc1c(OC)ccc2c1CN(Cc1ccco1)C(=O)CCN2CC(O)COCc1ccco1 (stereo unspecified) | -15.5 | -6.66 | -5.67 | -14.3% | -8.38%
COc1ccc2c(c1)C=C1Cn3c-2c(C2CCCCC2)c2ccc(cc23)C(=O)NS(=O)(=O)N(C)CCOCCN(C)C1=O | -7.22 | 9.54 | -10 | -43.3% | 0.492%
CCc1ccccc1NS(=O)(=O)c1ccc2c(c1)n(C)c(=O)n2C | -1.85 | 6.35 | -2.51 | -9.78% | -6.76%
NC(=O)c1ccccc1OC[C@@H]1CCCN2CCCC[C@H]12 | -1.42 | -0.298 | -16.2 | 2.02% | -1.5%
COc1ccc(-c2cc3n(n2)CC(C)(C(=O)NCc2ccccc2OC)N(c2ccc(F)cc2F)C3=O)cc1 (stereo unspecified) | 9.32 | 0.988 | 7.68 | 7.67% | 3.63%
NC(N)=NCc1cccc(I)c1 | 11.5 | 10.1 | 5.87 | -8.47% | -7.15%
Cc1ccc(-c2n[nH]n3c2nc(=O)c2ccc(C(=O)N4CCN(c5ccc(F)cc5)CC4)cc23)cc1 | -16.3 | 1.19 | 0.497 | -4.07% | 0.021%
COc1cc(OC)c(NC(=O)c2ccc(Cc3cc4c(cc3C)C(C)(C)CCC4(C)C)o2)c(OC)c1 | -1.63 | -3.55 | 7.48 | -48% | -5.58%
CCOC(=O)c1cc2n(n1)CC(C)(C(=O)NC1CCCCCC1)N(Cc1ccccc1F)C2=O (stereo unspecified) | 3.08 | 3.15 | 3.54 | 5.99% | 2.68%
CCCCCCCOc1cc2c(cc1/C(C)=C/c1ccc(C(=O)O)cc1)C(C)(C)CCS2(=O)=O | -43 | -19.4 | -34.6 | -85.7% | -5.78%
O=C1NCCSc2c1sc1ccc(O)cc21 |  | -9.96 |  | -34.2% | -7.86%
O=C(CCc1nnc2n(Cc3ccc(Cl)cc3)c(=O)c3ccccc3n12)NCCN1CCCC1 | -12.2 | 0 | -63.3 | 2.43% | -0.976%
CN1CC(=O)N(C2CCNC2)Cc2c(NCCc3cccc(F)c3)ncnc21 (stereo unspecified) | -2.44 | -0.837 | -13.1 | -4.57% | -5.03%
O=C(NCc1ccco1)C(NS(=O)(=O)c1cccc2nsnc12)c1ccccc1 (stereo unspecified) | 2.41 | 0 | 10 | 15.3% | 4.04%
C/C=C/c1ccc(O[C@@H]2O[C@H](CO)[C@@H](O)[C@H](O)[C@H]2O)c(OC)c1 | -6.32 | -24.8 | -0.119 | -25.3% | -11.6%
COc1cccc(CNC(=O)C2CN(c3ccc(F)cc3)C(=O)N2)c1 (stereo unspecified) | -5.22 | -9.85 | -6.67 | -13.5% | -12.2%
CCC1CCCCN1CCCN1C(=O)c2cc3occc3n2CC1(C)C(=O)NC1CCCCCCC1 (stereo unspecified) | 1.62 | 4.5 | -9.79 | -1.93% | -2.97%
C=CC(=O)c1ccc2ccccc2c1 |  | -36 |  | -37.8% | -5.36%
O=C(O)C[C@@H]1CCN(C(=O)c2ccco2)C[C@@H]1CCN1CCOCC1 | -2.28 | -3.49 | 0.033 | -6.81% | -20%
